The supplement of paper PMC3334620
Whole data set: some 33,000 sequences, median “E-score (-0.5 to 0.5)” near -0.012, cut for the highest 2% near 0.27. The list shows a part of the results.

target: T1, Vhr1 (UniProt P40522); assay: PBM E-score (8-mer binding enrichment) (E-score (-0.5 to 0.5)); higher = stronger / more preferred TF binding; most listed sequences are background and not binding sites; settings: protein concentration: 200 nM; construct: GST-full length
T1 sequence: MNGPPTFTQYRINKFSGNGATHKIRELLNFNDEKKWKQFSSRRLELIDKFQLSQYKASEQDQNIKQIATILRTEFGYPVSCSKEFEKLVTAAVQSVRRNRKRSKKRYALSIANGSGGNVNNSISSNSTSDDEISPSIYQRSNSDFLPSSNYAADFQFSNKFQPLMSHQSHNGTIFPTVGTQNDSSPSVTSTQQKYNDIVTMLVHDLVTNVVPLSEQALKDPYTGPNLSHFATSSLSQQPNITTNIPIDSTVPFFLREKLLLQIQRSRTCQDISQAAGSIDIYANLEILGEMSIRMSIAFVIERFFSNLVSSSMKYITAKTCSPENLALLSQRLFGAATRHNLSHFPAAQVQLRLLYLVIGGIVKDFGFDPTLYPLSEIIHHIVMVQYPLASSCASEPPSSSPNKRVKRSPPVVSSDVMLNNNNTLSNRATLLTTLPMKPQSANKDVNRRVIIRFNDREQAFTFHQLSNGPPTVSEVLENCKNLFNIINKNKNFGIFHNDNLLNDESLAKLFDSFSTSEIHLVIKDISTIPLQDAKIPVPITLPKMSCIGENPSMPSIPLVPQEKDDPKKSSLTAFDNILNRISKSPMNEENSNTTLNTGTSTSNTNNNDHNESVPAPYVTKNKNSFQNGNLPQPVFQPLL
Method: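 Universal 'all 10-mer' protein binding microarrays (Agilent AMADID 015681) probed with GST-tagged S. cerevisiae TFs (full-length or DBD) made by in vitro transcription/translation (PURExpress), about 100-200 nM. Bound TF was detected with fluorescent anti-GST. Each ungapped 8-mer (which stands for itself and its reverse complement) is scored by the PBM enrichment score (E-score), a modified Wilcoxon-Mann-Whitney statistic from -0.5 to +0.5, computed with the Universal PBM Analysis Suite. Scale: above 0.35 generally sequence-specific binding.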

Sequence | PBM E-score
AAGGGGGA | -0.138
ATTGTATA | 0.196
TGGCAACA | -0.188
CGGAGGAA | -0.243
AGGAGGAA | -0.196
ACCCAAGT | 0.123
AACTAGTC | 0.185
ATACTGGG | -0.0866
AACGATCG | -0.022
AAGCTTGG | -0.274
ACGCCATG | -0.00635
CGCTGGTA | -0.103
AACCACCT | 0.0827
CACGTCAA | 0.0613
ATATCCAT | -0.098
AATTGGTC | 0.00692
AGATCTAT | -0.17
AGCGTGAC | 0.191
CAGGAACC | -0.0676
CTCTTCCC | 0.00832
AGCTCTTG | -0.0587
ATTAAAGG | -0.078

Sequence | PBM E-score
AGTGCTGA | 0.0505
ACGGCGGC | -0.00545
CCCTTACC | -0.128
ACGAACCG | -0.0831
GAAACTTC | -0.229
ATCCGTCC | -0.0202
CGGGTACC | 0.00404
ATTTCCAC | 0.16
GCCAGGCA | -0.0108
CACCCTTA | 0.021
ACGTCAAA | -0.197
GTATGATA | 0.185
AGCCTAAT | -0.225
AATATTAA | 0.239
ATATATGA | 0.107
AACAACGC | -0.106
CGGTCCAG | 0.00237
ACGCTAGG | -0.0568
CTTTCGTA | -0.155
GACGTACC | -0.164
AGGGTCCC | -0.238
ATCCCTGA | 0.0173

Sequence | PBM E-score
GCGAAGCC | -0.204
CCGAAAAG | 0.0987
GTTCGACA | 0.112
AGCTTTGG | -0.156
AAACAGAT | -0.0763
ACGTAATG | 0.0488
CTGTCTCA | 0.043
CAATATCC | 0.0405
CCGGCTCC | 0.162
AGGGCCAC | -0.107
AGTGCGGA | 0.147
CAGAGCGC | -0.32
AGATCCAT | 0.00405
AAAATCGT | -0.0723
TAAACTTA | -0.0765
CTGTTTCA | -0.0224
ATGGGAGA | -0.0548
GGAGAACC | -0.225
AGGCGCGG | -0.129
GTGCCAAC | 0.0723
CGTCCACC | -0.255
AAAACAAT | -0.0254

Sequence | PBM E-score
CTCTCAAA | -0.262
AAGCTGGT | -0.0746
TGAAGCCA | -0.0993
ATAACAGC | -0.0189
CCACGTTC | -0.0854
ATTGCTTG | -0.00443
GGTAAGGA | -0.113
GCGAGCGC | -0.144
GCACTCAC | -0.0104
GGCTTAAA | -0.15
CATTGGGC | -0.208
ATCCTTCA | 0.115
GACTTCAC | 0.0751
GCGTTTTA | -0.194
CACGATAC | -0.00618
AATTAAAT | -0.125
CAGCCGAG | 0.105
CCATTTCC | 0.026
AGACTCCA | 0.133
AAGTACCA | 0.0514
